# In PubChem BioAssay AID1345083 (National Center for Advancing Translational Sciences (NCATS), 2018):
# Among all 94,000 compounds or so, about 6,200 (6.6%) were called active. The shares of active, inactive and inconclusive entries below differ from those in the screen. The call rests on the fitted dose curve; in most records, active means well fitted inhibition curve with a large enough effect; inconclusive means small, poorly fitted or top-dose-only effect; inactive means flat fitted curve, though single readings scatter. Where the call is inconclusive, the potency comes from a doubtful curve fit.
# Assay: Cytotoxic Profiling in HEK 293 Cell Line of Diverse Libraries Using Quantitative High-Throughput Screening; further: nearly all actives have a fitted effect of over 60% in size
# Conditions: HEK 293 viability, ATP luminescence (CellTiter-Glo), 48-72 h; series mostly up to 115 µM; activity change, negative = cytotoxicity: at the top concentration
# Summary of the method: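 HEK 293 seeded at 250 cells/well receive compound via pintool. After 48 or 72 hr at 37 degree Celsius, 5% CO2 and 95% humidity, CellTiter-Glo is dispensed and luminescence read following 10 min at room temperature.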
# On the % scale 0 is the no-effect control and ±100 the full control effect; potency means the concentration at half of the fitted maximal effect; tags describe the fitted curve by direction and shape.
SMILES,Potency,"activity change, negative = cytotoxicity",outcome
Cc1ncc2c(n1)C[C@@H]1CC[C@H]2N1C(=O)CC1CCCC1,"inconclusive: 89.1 µM [inhibitor, single point]",–,–
O=C(NC1CCCCC1)[C@H]1CN2CCC1C[C@@H]2Cn1cc(CO)nn1 (stereo not given in full),–,inactive: -14.1% [at 172 µM],–
Cc1ncc2c(n1)C[C@@H]1CC[C@H]2N1S(=O)(=O)c1ccccc1C,–,inactive: -23.4%,–
COc1cc2c(cc1-c1cccc(NC(C)=O)c1)NC(=O)C21CCN(C(C)=O)CC1,–,–,inactive [at 172 µM]
O=C1NC2(CCN(Cc3cccnc3)C2)COc2ccccc21 (stereo not given),active: 79.4 µM,–,–
C#C[C@H]1CN2CC[C@H]1C[C@@H]2CNCc1ccc(C(C)C)cc1,"inconclusive: 89.1 µM [inhibitor, partial curve]",–,–
COc1cc2c(cc1OCc1ccccc1)N(C(=O)C(C)C)CC21CCN(C)CC1,"inconclusive: 112 µM [inhibitor, partial curve, poor fit]",–,–
C#C[C@H]1CN2CC[C@H]1C[C@@H]2CNC(=O)c1ccc2ccccc2c1,"inconclusive: 126 µM [inhibitor, single point]",–,–
COCC(=O)NC[C@H]1C[C@@H]2CCN1C[C@@H]2c1cc(-c2ccccc2OC)nc(C)n1,–,inactive: -5.43% [at 172 µM],–
COC[C@H]1C[C@@H](NC2CCN(C)CC2)[C@H](O)[C@@H]1O,–,inactive: -8.13% [at 172 µM],–
COc1cc(NC(=O)OC[C@H]2C[C@@H]3CCN2C[C@@H]3c2cc(-c3ccc(N(C)C)cc3)nc(C)n2)cc(OC)c1,active: 5.62 µM,–,–
COc1cc2c(cc1OCc1ccncc1)NC(=O)C21CCN(Cc2ccccc2O)CC1,active: 44.7 µM,–,–
Cc1ccc(S(=O)(=O)NC[C@H]2C[C@@H]3CCN2C[C@@H]3CN2CCCCC2)cc1,"inconclusive: 112 µM [inhibitor, partial curve]",–,–
COc1cc2c(cc1OCc1ccccc1)N(C(=O)c1cccc(N(C)C)c1)CC21CCN(C)CC1,"inconclusive: 22.4 µM [inhibitor, full curve, poor fit]",–,–
CC[C@H]1CN2CC[C@H]1C[C@@H]2CNC(=O)Nc1cccc(SC)c1,–,inactive: -23.8% [at 172 µM],–
COc1ccc(NC(=O)N2[C@H]3CC[C@@H]2c2cnc(-c4ccccc4)nc2C3)cc1OC,"inconclusive: 89.1 µM [inhibitor, partial curve, poor fit]",–,–
Cc1ccccc1-c1ccc2n(c1=O)C[C@H]1C[C@@H]2CN(Cc2cccs2)C1,active: 70.8 µM,–,–
Cc1ncc2c(n1)C[C@@H]1CC[C@H]2N1C(=O)c1ccc2c(c1)OCO2,"inconclusive: 6.31 µM [inhibitor, full curve, poor fit]",–,–
COc1ccc(C(=O)N2[C@H]3CC[C@@H]2c2cnc(-c4ccc(F)cc4)nc2C3)c(OC)c1,"inconclusive: 56.2 µM [inhibitor, partial curve, poor fit]",–,–
CC(C)N1C[C@@H]2OCC(=O)N(Cc3cccnc3)[C@@H]2C1,–,inactive: -2.45% [at 230 µM],–
OC[C@@H]1[C@@H](c2ccccc2)CN2CCN(Cc3ccccc3)C[C@H]12,"inconclusive: 20 µM [inhibitor, full curve, poor fit]",–,–
Cn1nc(-c2ccc3ccccc3c2)cc1[C@H]1CN2CC[C@H]1C[C@@H]2CNS(=O)(=O)c1ccccc1,active: 25.1 µM,–,–
CC(=O)Nc1ccc(S(=O)(=O)N2C[C@@H]3C[C@H](C2)c2c(-c4cccs4)ccc(=O)n2C3)cc1,–,inactive: -1.65%,–
CC(C)N1C[C@@H]2OCC(=O)N(Cc3ccccn3)[C@@H]2C1,–,inactive: 3.52% [at 230 µM],–

SMILES,Potency,"activity change, negative = cytotoxicity",outcome
Cc1cc(C[C@@H]2COC[C@@H]2NC(=O)c2cn(C)c3ccccc23)on1,–,inactive: -18.5%,–
COc1ccccc1CC(=O)N1CC2(CCN(C)CC2)c2cc(OC)c(OCc3ccccc3)cc21,"inconclusive: 50.1 µM [inhibitor, partial curve, poor fit]",–,–
CCC(CC)C(=O)NC[C@H]1C[C@@H]2CCN1C[C@@H]2c1cc(-c2ccccc2Br)nc(C)n1,"inconclusive: 79.4 µM [inhibitor, partial curve, poor fit]",–,–
CCOC(=O)[C@H]1CN(C(=O)OCC)[C@]2(C)C(=O)Nc3ccccc3[C@H]12,–,inactive: -22.5%,–
Cc1ncc2c(n1)C[C@@H]1CC[C@H]2N1S(=O)(=O)c1ccc(F)cc1,–,inactive: -9.05%,–
COc1ccc(-c2cc([C@H]3CN4CC[C@H]3C[C@@H]4COC(=O)NC(C)C)n(C)n2)cc1,–,inactive: -28.3% [at 172 µM],–
Cc1nn(C)c2ncnc(NCCc3c[nH]c(=O)[nH]c3=O)c12,–,inactive: -5.42%,–
Cc1ccccc1-c1ccc2n(c1=O)C[C@H]1C[C@@H]2CN(C(=O)c2cccs2)C1,–,–,inactive [at 172 µM]
CCCCOC(=O)N1C[C@H](C(=O)OCC)[C@H]2c3ccccc3N(CC3CC3)C(=O)[C@]21C,"inconclusive: 39.8 µM [inhibitor, single point]",–,–
O=C1NC2(CN(CC3CC3)C2)Oc2ccccc21,–,inactive: -14% [at 172 µM],–
O=C(Cc1cccc(F)c1)N1CCN2CCS(=O)(=O)N(C3CC3)C(=O)C2C1 (stereo not given),–,inactive: -1.49%,–
C=C[C@H]1CN2CC[C@H]1C[C@@H]2CNC(=O)c1ccccc1C(=O)O,"inconclusive: 126 µM [inhibitor, single point]",–,–
COc1cc2c(cc1OC1CCCC1)NC(=O)C21CCN(Cc2nccs2)CC1,active: 100 µM,–,–
Cc1cccc(CC(=O)N2[C@H]3CC[C@@H]2c2cnc(C)nc2C3)c1,–,–,inactive
N#Cc1cccc(NC(=O)NC[C@H]2C[C@@H]3CCN2C[C@@H]3CN2CCN(c3ncccn3)CC2)c1,"inconclusive: 89.1 µM [inhibitor, partial curve, poor fit]",–,–
CCOC(=O)CN1C(=O)[C@@H]2[C@H](c3ccccc31)[C@@H](C(=O)OCC)[C@@H](c1ccccc1)N2C(=O)C1CC1,"inconclusive: 79.4 µM [inhibitor, partial curve, poor fit]",–,–
CC[C@H]1CN2CC[C@H]1C[C@@H]2CNS(=O)(=O)c1ccc2ccccc2c1,"inconclusive: 126 µM [inhibitor, single point]",–,–
Cc1ncc2c(n1)C[C@@H]1CC[C@H]2N1C(=O)Nc1ccc(C)c(C)c1,–,inactive: 3.38%,–
COc1ccc(CC(=O)N2CCN(Cc3ccccc3-c3cccnc3)CC2)cc1,"inconclusive: 50.1 µM [inhibitor, partial curve, poor fit]",–,–
COc1ccc(C(=O)N2CCC3(CC2)c2nccn2-c2ccccc2CN3C)cc1,–,inactive: -3.3%,–
O=C(NCc1ccco1)[C@H]1CN2CCC1C[C@@H]2Cn1cc(CO)nn1 (stereo not given in full),–,inactive: -8.56% [at 172 µM],–
COc1ccc(C(=O)N2CCC3(CC2)c2nccn2-c2ccccc2CN3C)c(OC)n1,"inconclusive: 50.1 µM [inhibitor, partial curve, poor fit]",–,–
Cn1nc2n(c1=O)CCC(NC(=O)c1nn(C)c3ccccc13)CC2 (stereo not given),–,–,inactive
COc1cc2c(cc1OCc1ccncc1)NC(=O)C21CCN(Cc2cccnc2)CC1,"inconclusive: 112 µM [inhibitor, partial curve, poor fit]",–,–

SMILES,Potency,"activity change, negative = cytotoxicity",outcome
Cn1nc(C2CCCCC2)cc1[C@H]1CN2CC[C@H]1C[C@@H]2CNC(=O)COc1ccccc1,active: 44.7 µM,–,–
Cc1cc(NCCc2c[nH]c(=O)[nH]c2=O)n2nccc2n1,–,inactive: -0.823%,–
FC(F)(F)CN1C2CCC1CN(c1ccc(C(F)(F)F)nc1)C2,–,inactive: -14.1%,–
CCCCC1CN2CCCC2CN1 (stereo not given),–,–,inactive [at 230 µM]
O=C1OCC2(CCN(Cc3cccc(Cl)c3)C2)N1c1ccncc1 (stereo not given),"inconclusive: 126 µM [inhibitor, single point]",–,–
CCOC(=O)[C@H]1CN(C(=O)Nc2ccccc2)[C@]2(C)C(=O)N(CC3CC3)c3ccccc3[C@H]12,"inconclusive: 35.5 µM [inhibitor, partial curve, poor fit]",–,–
COc1cc2c(cc1OC1CCCC1)NC(=O)C21CCN(c2ccc(C#N)cn2)CC1,"inconclusive: 100 µM [inhibitor, partial curve]",–,–
COc1cc2c(cc1Oc1cccc(N(C)C)c1)NC(=O)C21CCN(CCC(C)C)CC1,"inconclusive: 35.5 µM [inhibitor, partial curve, poor fit]",–,–
CCC(=O)N1[C@H]2CC[C@@H]1c1cnc(-c3ccc(F)cc3)nc1C2,–,inactive: -21.5%,–
CC(=O)N1CCC2(CC1)C(=O)NN=C2c1cccnc1,–,inactive: -19.5% [at 172 µM],–
CN1Cc2ccccc2-n2ccnc2C12CCN(C(=O)c1cccc(C(F)(F)F)c1)CC2,"inconclusive: 50.1 µM [inhibitor, partial curve, poor fit]",–,–
C=C[C@H]1CN2CC[C@H]1C[C@@H]2CNCc1ccc(C(F)(F)F)cc1,"inconclusive: 63.1 µM [inhibitor, full curve, poor fit]",–,–
O=C(Cc1ccc(F)cc1)N1CCCN(CCn2nc3n(c2=O)CCCC3)CC1,–,–,inactive
CNc1ncc(C(=O)N2C[C@H]3COc4ccccc4C[C@@]3(C(=O)O)C2)cn1,–,inactive: -24.3%,–
O=C(Nc1ccc2n(c1=O)C[C@H]1C[C@@H]2CN(C(=O)COc2ccccc2)C1)c1cccs1,"inconclusive: 100 µM [inhibitor, single point]",–,–
O=C1Nc2ccccc2CC12CN(Cc1cccnc1)C2,–,inactive: -2.37% [at 172 µM],–
O=S(=O)(NC[C@H]1C[C@@H]2CCN1C[C@@H]2CN1CCCCC1)c1ccccc1,"inconclusive: 100 µM [inhibitor, partial curve, poor fit]",–,–
CC[C@H]1CN2CC[C@H]1C[C@@H]2COC(=O)Nc1ccc(C(C)(C)C)cc1,active: 39.8 µM,–,–
CCOC(=O)CCNC(=O)N1[C@H]2CC[C@@H]1c1cnc(C)nc1C2,–,inactive: -12.2%,–
CC[C@H]1CN2CC[C@H]1C[C@@H]2CN(Cc1cccs1)Cc1cccs1,active: 44.7 µM,–,–
Cn1nc(C2CCCCC2)cc1[C@H]1CN2CC[C@H]1C[C@@H]2CNC(=O)Nc1ccccc1,active: 31.6 µM,–,–
CCOC(=O)[C@H]1CN(C(=O)/C=C/c2ccccc2)[C@]2(C)C(=O)Nc3ccccc3[C@H]12,"inconclusive: 39.8 µM [inhibitor, single point]",–,–
